# Measured values: the supplement of paper PMC12632987
# In all, about 2,300 sequences were measured (“median log2 fold change of GCK-ALFA target abundance (FLAG IP / Myc IP barcode read proportion)”: median about 0.095, lowest 2% from about -0.47 on). Some of the results follow.
# B1: LC3A_28_765 (protein)
# chain: MKIEDEIAKAIEEAKKAKEKGEETVITIKVPAGATQEDIDKVIEGMEKIAEITKDMKSTTIIIDVESGVPQENIDRLAKKGEEIEKKYPNVTVIIALDED
# B2: LC3A_28_1290 (protein)
# chain: SEIEEEIERAIEEAKEAKAKGEPVVITIKVPSGATQEEIEKVIEGLEEIAEILSDVKDQAIIIDVDSGVKQENIDKLADKAEEIEEKYPNVTVIIALDED
# B3: LC3A_28_1267 (protein)
# chain: SAIEKAIKEFEKQAEEALKKGEPSLLELEVSGKATQEEVDKINKTLEEQAEKLKDIKGTAILISVDSKLKQENLDKLIDTAEKIEEKYPNITVIVAIEDE
# B4: LC3A_55_2008 (protein)
# chain: MEVTIIITRNEKTGEILSLEVEVDEDPERLLERLEAAGEELAAELFRLANGRTLDEEEMAEIKERYSAEEVRRAVERLIEVLESEPDVKVSVIEELDEEE
# B5: LC3A_3_1412 (protein)
# chain: LEERREALLAELRAAGWSEETLAAVEELLEALLARGAEEEAERALELLRAARDLPSERLLEVVEEALRALREEGLSPEEVIALLEELLRVARAEQEIEEL
# B6: LC3A_132_281 (protein)
# chain: GEEEAEEVIEEIEELVDEAEENIDDDEKVRKLLEELRKKLEEIAKTKSPEVVAAAFEVAADELDRLSRLLAEKGKEELALEADSLAIEAASLADRAKKEI
# B7: LC3A_28_1103 (protein)
# chain: SALEANLAAALAEVRAAAARGEPVTVTIEVGGDATEEDLARLKAALEEMAAIAADLPSLTVIIDLSGEGAEEKANIIGAHAEELEKRYPNLTVIIALPED
# B8: LC3A_3_1413 (protein)
# chain: LEEAEAATLAALRAAGASEETLAALRELLALLRARGAEEEARRALELVLAAKDLPSERLLEVLREAIRALTEEGLSPEEVIELLEELLRIARNEQEIEEL
# B9: LC3A_free_0_2103 (protein)
# chain: SVTVVEVVAISKEKWSEEKAKKLKEAAEKLAKELEEKYGMETEVKLEEIDGRQVLTIKAKKEGMSIDEGLEIADYIADHLEEKAKELGVEVEIYESVYEE
# B10: LC3A_28_767 (protein)
# chain: MTIEEEVQKAIEEAKEAKERGEEAVITIKVPDGATEEDIEKVIEGLKEIAEITKDMKSTAIIIDVDGGVAQENIDKLMDAAEEIEEKYPNVTVIIALDEE
# B11: LC3A_3_1899 (protein)
# chain: MEEEVEETLKKLKEAGASEETLKAFKEVAEKLKERGYEEALKTLIEEMEKLLDAPSELLLEFLEEVLEVLETEDLSEEELIERIKEIARLTRNESEIEEL
# B12: LC3A_free_8_2478 (protein)
# chain: KTQKLVDTATKLLDELEEEVRKKAKELGLDELDILELELEIGATIQEVYDKSDESPEEILKTTEEGLKEIIKVAKEIDEELAKLVEKKSKEILEELKKLL
# B13: LC3A_3_1380 (protein)
# chain: GEEKLEEARKILEEQGRSEEVTKAALETLKALLEKGYEEAAETLIELLKESEDLSDENLLWFFEEVKRAVTEEDISEEELIKLIKEEFKIAKSAEEIIEL
# B14: LC3A_3_1505 (protein)
# chain: MEEFIKELREYLKKQGRSEEVIELAEKVLRLLLERGFEEAAKTFYEILKSMKDWSEEVLLWFLEEVLEMLETEEGNEEEIIEKIKEIARIAKSEHEIEEL
# B15: LC3A_28_1327 (protein)
# chain: SELEEQLEKQRKEALELAEKGEDVLIEVTITPETTLEEAEELMEKLRELVKEVAPKVKVSIVVDVEGGVSQEVIDAIAEKADEIEKEYPNATVIIALDED
# B16: LC3A_28_974 (protein)
# chain: SKLEKKLEEALKEAKEAAKEGKPTVITIEVSGETNEEDAEKIIKAMKEIAKILKDVKGAAIIIDVEKGVKQEIIDKLLDAGEEIEKEYPNITVIFALEEE
# B17: LC3A_free_26_2153 (protein)
# chain: DHFIDLVALDKAIEKLEKALKLLEEDPNASPELKELVKKALEELKKETLESLEKAKKLVEEAIKLLEKDKNLPEKTKAELKKLLEEALKLIEENIKIAKE
# B18: LC3A_28_1108 (protein)
# chain: MKIEEEIEKALEKAKKAAEKGEPEVITLTVKSSYTEEDIEKVIETLKEIAEILKDIKGAAIVIDLDGKIKPEHLQKLADAADEIEKKYPNVTVIIALDEE
# B19: LC3A_28_782 (protein)
# chain: DKLYKDIEEAIEKAKEAAEKKEPAVITITVTKDATQEEIDKAIEAMYEIAEILKGIKDQAIVIDVEAGVDQEHLDKLMDAAEEIEKKYPDVTVIIALEEE
# B20: LC3A_free_26_2143 (protein)
# chain: SDFVDLYNIDKALDNLDEAKKLLKELGSKNEELKQLVEKAKENVKKETLESLKKALENLDKAKKLVEEDKSIPEEDKKKLLELLDNAKKNVEATIKIMES
# B21: LC3A_free_8_2439 (protein)
# chain: SAQELADQIQAILDKTEEEIEKKGKELGLSELDINYAQLEVGEVIQTVIDLRDASAQEIADATIEDMERVEKRAAEIHPELAKIVKDALKEIKALAAKAA
# B22: LC3A_132_310 (protein)
# chain: AEELVKKLLETAKEALRLAKEDDNAEEEVKKLLEEIRKLMEELAKKVPPELAAEAFEEVMETMLELSRVATEKGWEEVADEAFALAAEAAQLASDARAKL
# B23: LC3A_3_1654 (protein)
# chain: GEELLEELLAWLREQGRSDEVLAAVREALTALIEKGYYEAAKTFAELLKELAHLPDDILLALANDVLELVKTSDDDEETIKKEIKELARTARSEGEIEEL
# B24: LC3A_28_1074 (protein)
# chain: SAVEEENEKILKEAKEAKEKGEPAVITIKIDESDTDEDIEKKLETIREVAEILKDVEGAAIIIDLEGEKALSRLDEVADLADELEEKYPNLTVIIALDDE
# B25: LC3A_28_1195 (protein)
# chain: SLAEETIKKIREQAKKALEEGDGAVIEVNISKELSDEGIDKILETIKEEAAKLADLESVSIIINVESGVSQENIDKIADTGEEIEEKYPNVTVIIALDED
# B26: LC3A_132_252 (protein)
# chain: SEELLKKALEELKEILDKVVDLLKAGKDPWPAIQELDKKAEEYAKKLSLEETEKLVEESEKYAEELFEKRLDPNNEEARRTLDHIEMLFESVLIEKELES
# B27: LC3A_free_46_2389 (protein)
# chain: AEGEIHALFSAGDLETIEKVAEESRKAIEEVAEEYGVEVEVKTEIIKNEDGKYELYIDVKIKGEDLETVEKAADEIVERLEEIAKKHGLKLASILSFEET
# B28: LC3A_28_820 (protein)
# chain: SAVDERIEKFLKEAKEAAEKGEEVTLVLEVTGEDTLEDVEKKAEALKEAAEILKDLKSVGIIVDLTEPISQESLDLLIETGEEVEEKYPNVSVVIALPEE
# B29: LC3A_28_728 (protein)
# chain: SRLEESIEKALKEAKEAAEKGEEVVIEITVPGDATEEDIEKLIEALEEIAKILSSLKNQTIVINVEGGVAQEHIDKIADKAEEIEKKYPNVTVIIALDEE
# Target: MAP1LC3A, Q9H492
# Assay: median log2 fold change of GCK-ALFA target abundance (FLAG IP / Myc IP barcode read proportion) (log2 ratio); each designed protein is fused to an ALFA-tag nanobody in HEK293 cells to bring the named protein to FLAG-tagged glucokinase (GCK); Myc marks an untargeted standard; higher = target protein stabilised (more abundant)
# Conditions: target protein: 3xFLAG-MCP-GCK-ALFA reporter; HEK293 landing pad (RPLP)
# Summary of the method: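 HEK293 landing-pad cells received a recombined binder library fused to the ALFA nanobody and were induced with 2 μg mL^−1 doxycycline, then transfected with a plasmid encoding a FLAG-tagged target and a Myc-tagged standard. Lysates were collected after 48 h for anti-FLAG and anti-Myc immunoprecipitation, and the circular RNA barcodes were reverse transcribed, amplified and sequenced. Target abundance for each binder is the median log2 ratio of FLAG to Myc barcode read proportions. Barcodes had to reach a proportion of at least 10^−7 in both replicates, each binder needed at least 3 barcodes per replicate, a pseudocount of 10^−6 was applied, and the two replicates were pooled.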
row,Binder,median log2 fold change
1,B1,0.29
2,B2,0.073
3,B3,-0.0252
4,B4,0.221
5,B5,0.243
6,B6,0.184
7,B7,0.196
8,B8,0.204
9,B9,0.15
10,B10,-0.0931
11,B11,0.259
12,B12,0.0114
13,B13,0.325
14,B14,-0.0141
15,B15,-0.563
16,B16,-0.26
17,B17,0.332
18,B18,-0.123
19,B19,-0.185
20,B20,0.345
21,B21,0.253
22,B22,0.19
23,B23,0.269
24,B24,0.0473
25,B25,0.229
26,B26,-0.196
27,B27,0.158
28,B28,0.139
29,B29,0.198
